Paper PMC4336329 (PLoS ONE, 2015)
Out of some 310,000 compounds screened, about 2,200 (0.71%) showed an effect of 50% or more. The effect is printed as a negative number. This is one part of the list.

target: human ether-à-go-go-related gene (hERG) potassium channel (human, UniProt Q12809); test: primary screen, population patch clamp on CHO cells stably expressing hERG
Sequence (Q12809 whole entry, looked up): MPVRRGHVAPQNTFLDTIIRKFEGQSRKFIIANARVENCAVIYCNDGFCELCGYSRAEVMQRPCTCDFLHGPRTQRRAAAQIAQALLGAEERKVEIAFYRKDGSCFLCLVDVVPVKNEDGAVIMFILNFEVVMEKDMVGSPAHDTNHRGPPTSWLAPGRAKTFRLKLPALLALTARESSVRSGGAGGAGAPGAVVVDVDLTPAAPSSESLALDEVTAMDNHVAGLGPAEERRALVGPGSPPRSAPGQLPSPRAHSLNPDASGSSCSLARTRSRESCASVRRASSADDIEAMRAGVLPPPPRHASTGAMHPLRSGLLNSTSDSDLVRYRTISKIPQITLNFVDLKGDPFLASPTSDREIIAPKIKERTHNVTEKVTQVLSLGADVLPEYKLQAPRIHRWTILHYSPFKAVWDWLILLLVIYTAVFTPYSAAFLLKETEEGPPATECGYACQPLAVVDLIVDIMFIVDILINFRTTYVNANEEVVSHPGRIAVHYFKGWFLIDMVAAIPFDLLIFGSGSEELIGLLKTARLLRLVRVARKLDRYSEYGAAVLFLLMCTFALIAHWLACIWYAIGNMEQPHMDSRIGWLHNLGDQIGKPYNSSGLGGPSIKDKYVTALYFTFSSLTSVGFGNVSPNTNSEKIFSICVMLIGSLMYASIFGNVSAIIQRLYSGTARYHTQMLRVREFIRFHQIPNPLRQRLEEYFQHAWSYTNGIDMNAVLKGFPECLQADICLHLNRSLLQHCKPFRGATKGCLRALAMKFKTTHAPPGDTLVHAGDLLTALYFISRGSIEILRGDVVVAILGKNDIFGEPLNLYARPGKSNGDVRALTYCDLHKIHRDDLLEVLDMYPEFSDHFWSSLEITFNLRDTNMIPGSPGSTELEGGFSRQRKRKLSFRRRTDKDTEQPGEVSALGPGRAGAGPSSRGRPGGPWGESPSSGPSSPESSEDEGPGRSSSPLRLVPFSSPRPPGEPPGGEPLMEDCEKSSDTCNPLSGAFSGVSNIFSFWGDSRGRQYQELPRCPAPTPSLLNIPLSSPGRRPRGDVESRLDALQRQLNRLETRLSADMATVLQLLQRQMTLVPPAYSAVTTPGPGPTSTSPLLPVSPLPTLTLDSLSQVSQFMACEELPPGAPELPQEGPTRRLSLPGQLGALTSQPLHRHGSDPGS

Row | SMILES | hERG current change (%, negative = inhibition) at 1uM
1 | CCCn1c(N)c(C(=O)CSc2nnc(-c3cccnc3)n2-c2ccc(C)cc2C)c(=O)[nH]c1=O | 7.05%
2 | O=C(CO/N=C/c1c(Cl)cccc1Cl)NNC(=O)c1cccc(Cl)c1 | 11.3%
3 | O=S(=O)(c1ccc(F)cc1)N1CCN(c2ccc(-c3ccccc3)nn2)CC1 | 5.73%
4 | O=C1NC(Nc2nccs2)(C(F)(F)F)C(=O)N1CCc1ccccc1 (centres unmarked) | 10.9%
5 | CC1C(=NO)C(C)C(c2ccccc2)NC1c1ccccc1 (centres unmarked) | -10.6%
6 | O=C(CN1CCN(c2ccccc2)CC1)Nc1ccccc1Sc1ccccc1 | 10.7%
7 | NC(=O)Cn1cc(C(=O)C(=O)N2CCOCC2)c2ccccc21 | 8.97%
8 | Cc1noc(C)c1CSc1nc2sc(C)c(C)c2c(=O)n1-c1ccccc1 | 14.9%
9 | Cc1ccc(C(=O)O)cc1NC(=O)c1ccc2c(c1)C(=O)N(c1ccc([N+](=O)[O-])cc1)C2=O | 21.9%
10 | O=C(OCc1ccccc1)N1CCCC1/C=C/CN1CCOCC1 (centres unmarked) | 12.6%
11 | CN(C(=O)/C=C/c1ccco1)c1ccccc1C(=O)O | 10.5%
12 | CCOC(=O)C1CCCN(c2nc3ccccc3nc2C(C#N)C(=O)NCc2ccccc2)C1 (centres unmarked) | 11.5%
13 | OCC[C@H]1C[C@@H](O)[C@H](O)[C@]2(OCCc3ccccc32)O1 | 7.28%
14 | CCN(CC(=O)Nc1ccc(NC(C)=O)cc1)C(=O)c1ccccc1SCc1c(C)noc1C | 9.18%
15 | COc1ccc(OC)c(CN2CCN(Cc3cc(=O)oc4cc(O)ccc34)CC2)c1 | -67%
16 | CC(O)CNc1nc2c(c(=O)n(Cc3ccc(Cl)cc3)c(=O)n2C)n1C (centres unmarked) | -0.235%
17 | CC(=O)/C(=N\Nc1ccc(Cl)cc1Cl)Sc1nnc(-c2ccccc2)n1-c1ccccc1 | 13.8%
18 | CC(C)Cc1cc(C(=O)N(C)C2CCCN(Cc3ccccc3F)C2)n(C)n1 (centres unmarked) | 13.1%
19 | COc1cc(OC)cc(C(=O)N2CCN(C3CCCCC3)CC2)c1.O=C(O)C(=O)O | -2.01%
20 | CC1CCCCN1C(=O)CCC(=O)Nc1nnc(C2CCCCC2)s1 (centres unmarked) | 14.9%
21 | O=C(NCC1COc2ccccc2O1)c1ccc(NC(=O)C2CCCO2)cc1 (centres unmarked) | -4.83%
22 | O=C(CSC1=Nc2ccccc2C2=NC(CC(=O)NCc3ccco3)C(=O)N12)NCc1ccco1 (centres unmarked) | 9.4%
23 | O=C(O)CN=C1CC(c2ccccc2)CC(=O)/C1=C(/O)CCCN1C(=O)c2ccccc2C1=O (centres unmarked) | 2.38%

Row | SMILES | hERG current change (%, negative = inhibition) at 1uM
24 | COc1cc(C(=O)Nc2ccc(Cl)c([N+](=O)[O-])c2)cc(OC)c1OC | 15.8%
25 | CCOC(=O)C1CCCN(Cc2ccccc2F)C1 (centres unmarked) | -9.07%
26 | O=c1[nH]c(/C=C/c2cccc(Br)c2)nc2ccccc12 | 11.8%
27 | Fc1cc(Cl)ccc1NC(=S)NCCN1CCOCC1 | 14.2%
28 | CCOc1ccc(S(=O)(=O)N(C)c2ccc(OCC(=O)OCc3c(C)noc3C)cc2)cc1 | 11.2%
29 | COc1ccc(C(CC(=O)NC(C)c2ccc(-c3ccccc3)cc2)NC(C)=O)cc1 (centres unmarked) | 0.383%
30 | CC1(C)Cc2c(c(-c3ccccc3Cl)[nH]c(=O)c2C#N)CO1 | 12.7%
31 | O=C1CC(N2CCC(Cc3ccccc3)CC2)C(=O)N1CCc1ccccc1 (centres unmarked) | 20%
32 | COc1ccccc1N1CCN(C(=O)c2ccccc2Oc2ccccc2)CC1 | 2.38%
33 | C=CCn1c(CNC(=O)c2ccco2)nnc1SCC(=O)N1c2ccccc2Sc2ccccc21 | 15.3%
34 | N#C/C(=C/c1ccc(N2CCOCC2)o1)c1ccc(Br)cc1 | 12.4%
35 | Cc1nnc2ccc(-c3cccc(NC(=O)c4ccc(Br)o4)c3)nn12 | -52.2%
36 | CCC(C)[C@H](NC(=O)c1cn(CC)c2cc3c(cc2c1=O)OCO3)C(=O)NCCCn1ccnc1 (some centres unmarked) | 25.9%
37 | NC(=O)c1ccccc1NC(=O)CN1CCCCCC1 | 13.4%
38 | FC(F)Oc1ccc(NC(=S)N2CCc3ccccc32)cc1 | 7.88%
39 | CCOc1cc(/C=C2/NC(=O)N(CC(=O)Nc3cccc(C)c3)C2=O)ccc1OC | 6.96%
40 | CCOC(=O)Cc1c(C)nc2c(C#N)c[nH]n2c1=O | 2.42%
41 | Cc1nc(-c2ccc(S(=O)(=O)Nc3ccc(Br)cc3F)cc2)co1 | 10.2%
42 | COc1ccc(C(C)=O)cc1CSc1nncn1C | 11.1%
43 | COCCNC(=O)c1cc2cc3ccc(OC)cc3nc2o1 | 13.9%
44 | CC1CCN(C(=O)CSc2nc3ccccc3s2)CC1 | -0.175%
45 | Cl.N[C@@H](CO)c1nnc([C@H](CC(=O)O)NC(=O)C2CCNCC2)o1 | 16.1%
46 | C[C@@]12CC(=O)NC1N(C(=O)c1ccccc1)C(c1ccccc1OC(=O)c1ccccc1)C2 (some centres unmarked) | 4.04%

Row | SMILES | hERG current change (%, negative = inhibition) at 1uM
47 | CN1C(=O)/C(=C\c2ccccc2F)Sc2ccc(C(=O)NC3CCN(Cc4ccccc4)CC3)cc21 | 3.18%
48 | CCOC(=O)c1sc(NC(=O)CSc2n[nH]c(CC)n2)nc1C | 14.2%
49 | CCN(CC)CCCOC(=O)c1ccc(OC)cc1O.Cl | -4.18%
50 | CC(=O)N1N=C(c2ccccc2OC(=O)/C=C/c2ccccc2)CC1c1ccccc1 (centres unmarked) | 12.2%
51 | COc1ccc2cc(Br)ccc2c1CC(=O)N1CCCC1 | 10.4%
52 | NS(=O)(=O)c1cc2c(cc1Cl)NC=NS2(=O)=O | 1.8%
53 | COc1ccc2c(c1)c(=O)oc1cc(OC(C(=O)O)c3ccccc3)ccc12 (centres unmarked) | 20%
54 | O=C(Cn1c2[n+](c3ccc(C(F)(F)F)cc31)CCCCC2)c1cccc([N+](=O)[O-])c1.[Br-] | 1.37%
55 | O=C(O)CCCc1nc2ccccc2s1 | 10.8%
56 | O=[N+]([O-])c1ccc(/C=N/Nc2ncc(Br)cn2)cc1 | 7.23%
57 | CN(CC(=O)Nc1ccccc1Cl)C(=O)COC(=O)c1ccc(Cl)nc1 | 12.6%
58 | CC1CCCCC1NC(=S)NC(=O)c1cccs1 (centres unmarked) | 15.7%
59 | COc1ccc(S(=O)(=O)N2CCSC2)cc1C | 5.16%
60 | Cn1c(SCC(=O)NCc2ccccc2)nc2ccccc21 | 20.4%
61 | CN1CCN(c2ccc(NC(=O)COc3ccc4ccccc4c3)cc2)CC1 | 3.13%
62 | COc1cccc(-c2nn3c(-c4ccccn4)nnc3s2)c1 | -8.72%
63 | O=C(CCC1CCCC1)N1CCC(N2CCCCCC2)CC1.O=C(O)C(=O)O | -10.1%
64 | O=C(CCCN1C(=O)CCC1=O)Nc1ccc2c(c1)OCO2 | 15.4%
65 | CN(C)S(=O)(=O)c1ccc(N2CCCC2)c(C(=O)Nc2ccc(N3CCOCC3)cc2)c1 | 0.967%
66 | Cn1nnc(NC(=O)CSc2ncn[nH]2)n1 | 3.74%
67 | O=C(NCc1nnc(SCC(=O)N2CCCCC2)o1)c1c(F)cccc1F | 6.45%
68 | CC1CCC(C(=O)NC(C(=O)N2CCN(c3ccccn3)CC2)C(C)C)CC1 (centres unmarked) | 8.21%
69 | Nc1nc2c(Cl)ccc(Cl)c2s1 | 13.5%

Row | SMILES | hERG current change (%, negative = inhibition) at 1uM
70 | CCOC(=O)N1CCC(Nc2c(NCCCN(CC)CC)c(=O)c2=O)CC1 | 13.3%
71 | C#CCSc1nc(-c2ccccc2)cc(C(F)(F)F)c1C#N | 4.87%
72 | COc1ccc(/C=C/C(=O)NC(=S)Nc2ccc(S(N)(=O)=O)cc2)cc1 | 8.68%
73 | CCCCn1c(O)c(N=Nc2ccccc2O)c2ccccc21 | 11.4%
74 | O=C(NC12CC3CC(CC(C3)C1)C2)N1CCN(C(=O)c2ccco2)CC1 | 8.18%
75 | COc1ccc(S(=O)(=O)CCC(=O)NC2CCCCC2)cc1 | 13.2%
76 | O=C(NCCCN1CCOCC1)c1ccc2c(=O)n(Cc3cccc(Br)c3)c(=S)[nH]c2c1 | 11.3%
77 | CCOC(=O)c1ccc(NC(=O)CCc2nnc3ccc(N4CCCC4)nn23)cc1 | 3.89%
78 | COc1ccccc1-n1cnc(N)c1C(=O)c1ccccc1 | 3.06%
79 | COc1cccc(NC(=O)c2ccccc2-c2nc(-c3ccc(Cl)cc3)no2)c1 | 1.5%
80 | Cc1ccc(O)c(NC(=O)CSc2n[nH]c(-c3ccccc3)n2)c1 | -11.7%
81 | CCCCOc1ccc(C(=O)NCC(=O)NC2CCCCC2)cc1 | 12%
82 | CC1CN(/C=C/C=O)C(C)CC1OC(=O)c1ccccc1 (centres unmarked) | 11.3%
83 | CCC(=O)Nc1nnc(SCC(=O)NCC2CCCO2)s1 (centres unmarked) | 7.2%
84 | COc1ccc(CCN2CNc3c(c(=O)n(C)c(=O)n3C)C2)cc1 | -6.58%
85 | COc1ccc(CCn2c(-c3ccco3)nc3ccccc3c2=O)cc1OC | -14.3%
86 | CCNC(=O)CC1C(=O)N(C)C(=S)N1NC(=O)c1ccc(Cl)cc1 (centres unmarked) | -10.1%
87 | O=C(CSc1nc(C(F)(F)F)cc(=O)[nH]1)NCC1CCCO1 (centres unmarked) | 16.8%
88 | O=c1c2ccccc2nc2sc3ccccc3n12 | 14.7%
89 | CC1CCN(C(C(=O)NC2CCCCC2)c2cc3c(cc2[N+](=O)[O-])OCO3)CC1 (centres unmarked) | 4.21%
